In all, about 110,000 compounds were measured (“z-score”: median about -0.1, highest 2% from about 2 on). The list shows a part of the results. Active and inactive are the calls of the source.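 How the source made its calls: active means z-score in the third read window above 3 or below -3; inactive means the rest.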 Residues, ends and D or L forms follow the SMILES beside them. *: point of attachment. Cbz = O=C(OCc1ccccc1)*; OtBu = CC(C)(C)O*; tBu = CC(C)(C)*
Target: Metabotropic glutamate receptor 8 (Rattus norvegicus) (UniProt P70579)
UniProt P70579, sequence (P70579 whole entry, looked up): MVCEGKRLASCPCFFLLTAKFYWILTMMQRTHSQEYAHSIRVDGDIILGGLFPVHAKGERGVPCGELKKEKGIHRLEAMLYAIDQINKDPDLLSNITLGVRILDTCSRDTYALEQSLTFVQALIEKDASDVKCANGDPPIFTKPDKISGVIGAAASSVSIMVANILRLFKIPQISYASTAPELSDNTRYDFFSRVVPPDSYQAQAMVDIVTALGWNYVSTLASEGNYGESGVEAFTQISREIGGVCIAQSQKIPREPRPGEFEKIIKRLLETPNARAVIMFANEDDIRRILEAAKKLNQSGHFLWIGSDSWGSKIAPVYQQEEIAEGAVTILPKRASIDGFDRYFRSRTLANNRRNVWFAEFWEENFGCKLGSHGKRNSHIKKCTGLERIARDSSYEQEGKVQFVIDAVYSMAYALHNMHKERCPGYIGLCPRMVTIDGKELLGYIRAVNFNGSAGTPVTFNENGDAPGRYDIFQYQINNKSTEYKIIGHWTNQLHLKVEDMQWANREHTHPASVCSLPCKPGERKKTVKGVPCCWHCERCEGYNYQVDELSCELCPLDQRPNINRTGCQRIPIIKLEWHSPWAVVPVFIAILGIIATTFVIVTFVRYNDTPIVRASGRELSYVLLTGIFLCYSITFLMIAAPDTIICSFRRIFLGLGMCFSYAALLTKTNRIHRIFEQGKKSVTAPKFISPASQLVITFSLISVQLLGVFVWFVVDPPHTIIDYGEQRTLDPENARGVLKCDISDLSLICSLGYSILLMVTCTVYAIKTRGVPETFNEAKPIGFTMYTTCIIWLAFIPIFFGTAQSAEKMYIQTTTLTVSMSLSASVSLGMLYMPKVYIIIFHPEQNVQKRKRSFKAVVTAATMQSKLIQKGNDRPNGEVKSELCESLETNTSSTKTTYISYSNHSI
Test: rat mGluR8 modulators via GIRK flux, primary screen, cell-based, thallium flux, HTS (AID 488969)
Settings: HEK293 rat mGluR8, GIRK (G protein-gated inwardly rectifying potassium channel) thallium flux, FluoZin2; at 10 µM; stronger effect = higher value; submaximal glutamate (EC20) added with thallium

Going from `COC(=O)Oc1c(Br)c(=O)oc2ccccc12` to `COC(=O)c1cc(Br)ccc1NC(=O)Nc1ccccc1`, the z-score rises from -2.23 to -0.137.

Going from `c1ccc(-c2noc(CSc3nc4ccccc4o3)n2)cc1` to `c1ccc(-c2cn3nc(-c4ccccc4)cnc3n2)cc1`, the z-score falls from 1.35 to 0.0427.

First: CCn1c(=O)n(CC)c2cc(S(=O)(=O)Nc3cc(C)cc(C)c3C#N)ccc21
Second: CN(C)C=Nc1ncc2c3ccccc3n(CCN(C)C)c2c1C#N
The z-score of the first is higher: 0.21 for the first, -0.357 for the second.

Compared with `CCOC(=O)C1=C(C)NC2=C(C(=O)C(C(=O)OCC)C(c3ccc(OC)cc3)C2)C1c1ccccn1` (configuration not stated), `COc1ccc(C2C(C(N)=O)=C(C)Nc3nc(-c4ccccc4OC)nn32)cc1OC` (configuration not stated) is higher in z-score: -2.09 for the first, 0.317 for the second.

Going from `CC(C)OC(=O)CSc1nnc(SCc2cccc3ccccc23)s1` to `O=C(CSc1nnc(SCc2cccc3ccccc23)s1)N=Nc1c(O)[nH]c2ccccc12`, the z-score falls from -0.157 to -0.196.

First: CC(=O)c1ccc(NC(=O)c2ccc(S(=O)(=O)c3ccccc3)cc2)cc1
Second: O=C(CNc1cccc2ccccc12)N/N=C/c1ccc(C(=O)O)cc1
The z-score of the first is lower: -0.201 for the first, 0.00827 for the second.

Going from `O=C(Cc1c[nH]c2ccccc12)NCc1cccs1` to `O=C(CCCCCn1c(=O)[nH]c2ccccc2c1=O)NCCc1c[nH]c2ccccc12`, the z-score rises from -0.252 to -0.126.

Compared with `O=C(Nc1ccc2nc(SCc3ccc(Cl)cc3)sc2c1)c1ccccc1C(=O)N1CCOCC1`, `COc1ccccc1-c1cc(C(=O)Nc2cc(C)n(Cc3ccc(Cl)cc3)n2)no1` is higher in z-score: -0.161 for the first, 1.42 for the second.

Going from `COc1ccc(O)c(C(=O)c2cc(C#N)c(=O)n(CC3CCCO3)c2)c1` (configuration not stated) to `COc1ccc(-c2cc(C(F)F)n3ncc(C(=O)NCC4CCCO4)c3n2)cc1` (configuration not stated), the z-score rises from -0.658 to 0.609.

Compared with `O=P(Cc1ccncc1)(c1ccccc1)c1ccccc1`, `O=C(c1ccccc1)N(Cc1ccccc1)c1ccccn1` is higher in z-score: -0.282 for the first, -0.18 for the second.

Compared with `COc1ccc(/C=C/C(=O)c2c(O)ccc3c(C)cc(=O)oc23)cc1`, `COc1ccc(/C=N/OCC(=O)N(Cc2ccccc2)c2ccccc2C(=O)O)cc1` is higher in z-score: -0.404 for the first, -0.0974 for the second.

Going from `CCCC(=O)NC(=S)Nc1ccccc1C(=O)OC` to `COC(=O)c1ccccc1NC(=O)c1ccccc1N(C)S(C)(=O)=O`, the z-score falls from 0.0764 to -0.424.

Compared with `COc1ccc(/C=C2/C(=O)N(c3nc4ccccc4s3)N=C2CSc2ccc(Cl)cc2)cc1`, `COc1ccc(Cn2c(-c3ccccc3)nc3c(c(=O)c4ccccc4n3C)c2=O)cc1` is higher in z-score: -0.344 for the first, -0.279 for the second.

Compared with `COC(=O)c1c(-c2ccc(C)cc2)csc1NC(=O)Cc1ccc(OC)c(OC)c1`, `CC(=O)NC(=S)Nc1ccc(-c2nc3ccc(C)cc3s2)cc1` is higher in z-score: -0.181 for the first, 0.23 for the second.

Compared with `CC(NC(=O)OCc1ccccc1)C(=O)NCC(=O)NC(Cc1ccc(OC(C)(C)C)cc1)C(=O)OC(C)(C)C` (stereo not drawn) (Cbz-Ala-Gly-Tyr(tBu)-OtBu; configuration not given here), `CCOC(=O)C1(C)C=C(Nc2ccc(OCC)cc2)C(=O)N1c1ccccc1` (configuration not stated) is higher in z-score: -0.354 for the first, -0.0669 for the second.

First: Cc1sc2nc(CN(C(=O)NC3CCCCC3)C3CCCCC3)[nH]c(=O)c2c1C
Second: CCN(C1CCCCC1)S(=O)(=O)c1ccc(S(=O)(=O)N(CC(=O)Nc2ccccc2)C2CC2)cc1
The z-score of the first is higher: 0.362 for the first, 0.199 for the second.

Going from `Cc1cc(C(=O)N2CCC(C(F)(F)F)n3nccc32)on1` (configuration not stated) to `Cc1cc(C(=O)NCCCN2CCOCC2)n(-c2ccccc2)n1`, the z-score rises from -0.55 to 0.0519.

First: O=c1c2c3c(sc2nc2n1CCC2)CCC3
Second: COc1ccc(-n2c(SCC(=O)Nc3nccs3)nc3sc4c(c3c2=O)CCN(C)C4)cc1
The z-score of the first is lower: -0.141 for the first, 0.252 for the second.

Going from `CC(C)(C)NC(=O)c1ccc(Sc2ccccc2)c([N+](=O)[O-])c1` to `O=C(CCSc1ccccc1)NCCSCc1ccccc1`, the z-score rises from -1.23 to -0.108.

First: CCS(=O)(=O)N1CCC(NC(=O)c2cc(OC)cc(OC)c2)CC1
Second: COc1ccc(Cl)cc1S(=O)(=O)N1CCN(C(=O)COc2ccccc2)CC1
The z-score of the first is higher: 0.357 for the first, -0.595 for the second.

Going from `Cc1nn(C(=O)c2c([N+](=O)[O-])cnn2C)c(C)c1Cl` to `CCN(CC)C(=O)C1=C(C)NC(=O)NC1c1c(F)cccc1Cl` (configuration not stated), the z-score falls from -0.0558 to -0.438.

Compared with `CCOc1ccccc1N1CCN(C(=O)C2c3ccccc3Oc3ccccc32)CC1`, `O=C(NCC(c1ccco1)N1CCN(c2ccc(F)cc2)CC1)OCc1ccccc1` (configuration not stated) is lower in z-score: 0.121 for the first, -0.507 for the second.

Going from `CCOC(=O)C1(CC)NC(c2ccco2)C2C(=O)N(c3ccc(C)cc3)C(=O)C21` (configuration not stated) to `Cc1ccc(N2C(=O)CC(Nc3ccccc3)C2=O)cc1` (configuration not stated), the z-score rises from -0.0576 to 0.323.

First: Cc1nnc(SCC(=O)NCc2ccco2)n1-c1ccccc1
Second: Cc1nnc(SCC(=O)NCc2ccco2)[nH]c1=O
The z-score of the first is lower: -0.0052 for the first, 0.822 for the second.

Compared with `CCOC(=O)/C(C(C)=O)=C1/OC(=O)c2ccccc21`, `CCOC(=O)COc1ccc(CCNC(C)=O)cc1` is higher in z-score: -0.285 for the first, 0.0219 for the second.

Going from `O=C(N/N=C/c1ccc(OC2CSC2)cc1)c1ccccc1` to `COc1ccc(N2CCN(C(=O)CSc3nnc(CNc4ccccc4)o3)CC2)cc1`, the z-score rises from -0.257 to 0.686.

Compared with `COc1cc(C2Nc3ccc4ncccc4c3C3=C2C(=O)CCC3)cc(OC)c1O` (configuration not stated), `COc1cc(OC)c(-n2cc(-c3ccc(Cl)cc3)[nH]c2=O)cc1Cl` is lower in z-score: -0.047 for the first, -0.109 for the second.

First: CCOc1ccccc1NC(=O)CSc1nnc(CNC(=O)c2ccco2)o1
Second: Cc1c(Cl)cccc1NC(=O)CSc1nnc(CCNC(=O)OC(C)(C)C)o1
The z-score of the first is lower: -0.119 for the first, 0.264 for the second.

Compared with `CCOC(=O)c1cc(-c2ccc(/C=C3/C(=O)NC(=O)C(C#N)=C3C)o2)ccc1Cl`, `CCOC(=O)c1cc(NC(=O)c2ccc(Cl)cc2)c(=O)n2c1oc1ccc(Cl)cc12` is lower in z-score: -0.148 for the first, -1.56 for the second.

First: O=C(Nc1ccc2c(c1)OCO2)c1ccc(COc2ccc3c(c2)CCC3)o1
Second: CC1(C)Oc2ccc(NC(=O)c3ccco3)cc2O1
The z-score of the first is lower: -0.205 for the first, 0.0161 for the second.

Going from `Nc1c(C(=O)N2CCOCC2)sc(=S)n1-c1ccccc1` to `O=C(N/C(=C/c1cccnc1)C(=O)N1CCOCC1)c1ccco1`, the z-score falls from 0.598 to 0.0222.

First: Cc1ccc(NC(=O)CCC(=O)OCc2ccc(Br)cc2)cc1
Second: COc1ccccc1CC(=O)Nc1ccc(-c2noc(COc3ccc(Br)cc3)n2)cc1
The z-score of the first is lower: -0.235 for the first, 0.394 for the second.

First: Cc1cccnc1NC(=O)Nc1cccc2ccccc12
Second: O=C(On1c(-c2ccccc2)nc2ccccc2c1=O)c1ccco1
The z-score of the first is higher: -0.148 for the first, -2.42 for the second.

Going from `Cc1ccc(/C=C/c2nc3ccccc3s2)s1` to `Cn1c(SCc2nc3ccccc3[nH]2)nnc1-c1cccs1`, the z-score falls from 0.108 to -0.22.

Going from `Cc1ccc2nc(Cl)c(/C=N/Nc3nc(C)cc(C)n3)c(=O)n2c1` to `COc1ccc(Oc2nc3c(c(=O)n(C)c(=O)n3C)n2Cc2ccccc2)cc1`, the z-score falls from -0.589 to -1.

Compared with `O=C(C1CC1)N(CCN(Cc1ccccc1)C(=O)C1CC1)Cc1ccccc1`, `CCOC(=O)C1=C(CP(=O)(c2ccccc2)c2ccccc2)NC(=O)NC1c1ccc(Cl)cc1` (configuration not stated) is higher in z-score: -0.357 for the first, -0.311 for the second.

Compared with `FC(F)(F)c1nnc2sc(-c3cccs3)nn12`, `Cc1ccc(Oc2nc(C(F)(F)F)nc3ccccc23)cc1` is higher in z-score: -0.116 for the first, -0.0484 for the second.

Going from `CC(=O)Nc1ccc(OCC(O)Cn2c3ccccc3c3ccccc32)c(C)c1` (configuration not stated) to `COC(=O)c1ccc(COn2c(=O)c(C)[n+]([O-])c3ccccc32)cc1`, the z-score falls from -0.121 to -0.22.

Going from `COc1cccc(C(=O)Nc2nc3c(s2)CN(C)CC3)c1` to `Cc1cccc(C(=O)OCc2cnc(Cl)s2)c1`, the z-score falls from -0.0134 to -0.141.

Compared with `CSc1nc2c(cc1C#N)CCCCC2`, `COCc1cc(C)nc(NCCO)c1C#N` is lower in z-score: -0.138 for the first, -0.354 for the second.

Going from `CCN(CC)S(=O)(=O)c1ccc(S(=O)(=O)N(Cc2ccccn2)Cc2ccco2)cc1` to `CCN(c1ccccc1)S(=O)(=O)c1ccc(Cl)c(NC(=O)CSc2nncs2)c1`, the z-score rises from -0.932 to -0.244.

First: O=S(=O)(c1ccc(F)cc1)n1ccc(-c2cccc(OCc3ccc(Cl)cc3Cl)c2)n1
Second: Clc1ccc(C2=CSC3=Nc4cccc5cccc(c45)N23)cc1
The z-score of the first is lower: -0.222 for the first, 0.287 for the second.

Compared with `CSc1nncc(-c2ccc(F)c(F)c2)n1`, `Clc1ccc(-c2nnc(COc3ncnc4sccc34)o2)cc1` is higher in z-score: -0.588 for the first, -0.17 for the second.

Going from `COC(=O)c1ccc(CSc2ncnc3c2nnn3-c2ccc(F)cc2)o1` to `CCc1cccc(CC)c1N(COC)C(=O)Cn1c(CO)nc2ccccc21`, the z-score rises from -0.0233 to 0.35.

Compared with `CCN(CC(=O)NC1CCS(=O)(=O)C1)S(=O)(=O)c1ccccc1` (configuration not stated), `CCc1ccccc1N(CC(=O)Nc1cccc(N(C)S(C)(=O)=O)c1)S(C)(=O)=O` is lower in z-score: -0.3 for the first, -0.767 for the second.

Compared with `Cc1ccc(Cl)cc1NC1=C/C(=N\S(=O)(=O)c2cccs2)c2ccccc2C1=O`, `Cc1ccc(NC(=O)CN2c3cccc4cccc(c34)S2(=O)=O)cc1S(=O)(=O)N1CCOCC1` is higher in z-score: -0.209 for the first, 1.9 for the second.

Going from `CNC(=S)N1CCN(c2ccc([N+](=O)[O-])cc2)CC1` to `O=C(c1cccc(F)c1)N1CCN(Cc2ccco2)CC1`, the z-score rises from -0.188 to 1.75.

First: O=c1[nH]c2cc3c(cc2cc1C(c1nnnn1Cc1ccccc1)N1CCCc2ccccc21)OCO3 (configuration not stated)
Second: Cc1n[nH]c(C)c1C(=O)CC1(O)C(=O)N(CCc2ccccc2)c2ccc(Br)cc21 (configuration not stated)
The z-score of the first is lower: -0.346 for the first, -0.295 for the second.

Compared with `CN1C(=C2C(=O)OC(C)(C)OC2=O)Sc2ccccc21`, `O=C(CCn1c(=O)c2sccc2n(CC(=O)OCc2ccccc2)c1=O)NCc1ccco1` is lower in z-score: -0.239 for the first, -0.601 for the second.

First: CCCSCCCNC(=O)Cn1cc2c(n1)CCC(C)C2 (configuration not stated)
Second: Cc1ccc(NS(=O)(=O)c2cc(C(=O)NCCSC3CCCCC3)ccc2C)cc1
The z-score of the first is higher: 0.0614 for the first, 0.0246 for the second.

Going from `O=C(Nc1nc(-c2ccccn2)cs1)C1CC1` to `O=C(CN(C1CCCCC1)S(=O)(=O)c1ccc(Cl)cc1)NCc1cccnc1`, the z-score falls from 0.0299 to -0.67.

Compared with `O=C(C1CCCN(Cc2ccccc2Br)C1)N1CCCCC1` (configuration not stated), `O=C(Nc1ccc(N2C(=O)c3cccc4cccc(c34)C2=O)cc1)c1ccc(N2CCCCC2)c([N+](=O)[O-])c1` is lower in z-score: 0.643 for the first, -0.0599 for the second.

Compared with `CC(C)=CC[N+]1(C)CCCCC1`, `Cc1cc(O)cc(=O)n1Cc1ccco1` is lower in z-score: 1.14 for the first, -0.277 for the second.

`Cc1ccc(-n2[nH]c(C)c(/C=N/c3ccccn3)c2=O)cc1` was tested, and the z-score was active: 6.24.

Source: PubChem BioAssay AID488969 (Vanderbilt High Throughput Screening Facility, 2010)
